Laboratory results published in publication PMC4336329 (PLoS ONE, 2015).
In all, about 310,000 compounds went through this assay and about 2,200 (0.71%) showed an effect of 50% or more. Effects have a minus sign here. The list shows a part of the results.

Target: human ether-à-go-go-related gene (hERG) potassium channel (human, UniProt Q12809)
Assay: primary screen, population patch clamp on CHO cells stably expressing hERG

Sequence of human ether-à-go-go-related gene (hERG) potassium channel (Q12809 whole entry, looked up): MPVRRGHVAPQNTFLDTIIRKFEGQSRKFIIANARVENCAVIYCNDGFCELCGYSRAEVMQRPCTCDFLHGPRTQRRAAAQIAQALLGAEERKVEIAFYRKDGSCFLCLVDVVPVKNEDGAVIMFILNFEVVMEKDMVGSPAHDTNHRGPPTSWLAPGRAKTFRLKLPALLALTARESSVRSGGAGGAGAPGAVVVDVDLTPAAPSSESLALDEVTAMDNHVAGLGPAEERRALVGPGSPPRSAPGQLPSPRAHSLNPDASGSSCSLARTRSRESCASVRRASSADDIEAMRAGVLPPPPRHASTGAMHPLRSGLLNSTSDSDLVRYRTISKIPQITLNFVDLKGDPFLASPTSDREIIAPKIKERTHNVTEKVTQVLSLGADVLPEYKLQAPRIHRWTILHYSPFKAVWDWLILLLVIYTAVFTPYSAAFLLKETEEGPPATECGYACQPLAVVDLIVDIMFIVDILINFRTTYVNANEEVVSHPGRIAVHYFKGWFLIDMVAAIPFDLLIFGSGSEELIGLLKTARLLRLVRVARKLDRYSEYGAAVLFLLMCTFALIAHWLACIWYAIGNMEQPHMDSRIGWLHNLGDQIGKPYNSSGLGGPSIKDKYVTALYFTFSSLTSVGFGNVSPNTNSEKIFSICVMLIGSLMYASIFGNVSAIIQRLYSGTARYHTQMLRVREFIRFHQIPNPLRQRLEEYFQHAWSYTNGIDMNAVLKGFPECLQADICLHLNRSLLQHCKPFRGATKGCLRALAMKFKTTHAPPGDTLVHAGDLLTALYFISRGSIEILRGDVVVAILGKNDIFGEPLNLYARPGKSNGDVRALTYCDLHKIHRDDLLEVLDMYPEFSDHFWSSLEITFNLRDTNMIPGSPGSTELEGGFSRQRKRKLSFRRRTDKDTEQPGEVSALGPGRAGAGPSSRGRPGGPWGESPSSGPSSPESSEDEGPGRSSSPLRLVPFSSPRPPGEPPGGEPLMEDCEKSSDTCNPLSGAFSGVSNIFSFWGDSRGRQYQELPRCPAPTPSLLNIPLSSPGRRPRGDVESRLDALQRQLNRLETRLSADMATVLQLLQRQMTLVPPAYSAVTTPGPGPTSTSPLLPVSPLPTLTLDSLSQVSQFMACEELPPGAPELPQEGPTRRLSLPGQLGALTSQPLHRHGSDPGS

Structure (SMILES) | hERG current change (%, negative = inhibition) at 1uM [%]
O=[N+]([O-])c1cccc(-c2c[n+]3c(n2-c2ccccc2)SCC3)c1.[Br-] | -3.79
COc1ccc(-c2nc(CSCC(=O)NC3CCCC3)c(C)o2)cc1OC | 11.7
Cc1ccc(NC(=O)c2ccc(C)c(NC3=NC4CS(=O)(=O)CC4S3)c2)cc1C (stereo not shown) | 3.92
Nc1nc(-c2cccs2)c(NC(=O)c2ccccc2)s1 | 12.6
COc1cc(/C=C2\C(=O)NC(=O)N(c3ccccc3)C2=O)cc(OC)c1O | 5.98
O=C(Cn1cnc2c(cnn2-c2ccccc2)c1=O)N1CCOCC1 | 9.92
NC(=O)Cn1cnc2c(nnn2-c2cccc(Cl)c2)c1=O | 13.8
COC(=O)c1cc(NC(=O)Cc2cccs2)cc(C(=O)OC)c1 | 18
O=C(N1CCCCC1)N1CCC(c2nc3ccccc3[nH]2)CC1 | 18
C/C(=N\NC(=O)c1nnn(-c2nonc2N)c1CN(C)c1ccccc1)c1ccccn1 | 19.2
COc1ccccc1NC(=O)c1sc(NC(=O)c2ccco2)c(C#N)c1C | 17
CCc1nnc(NC(=O)c2ccc(OC)c(S(=O)(=O)N3CCCC3)c2)s1 | 8.25
COc1ccc(CCNC(=O)C(=O)NCC2OCCN2S(=O)(=O)c2cc(F)ccc2F)cc1OC (stereo not shown) | 5.67
Cc1cc(=O)c(C(=O)O)cn1Nc1ccc(Cl)cc1 | 7.33
O=C(NCCO)c1cccc(Cl)c1 | 15.1
CCCCCCCC(=O)Nc1cc(C(=O)NCCC)ccc1N1CCC2(CC1)CC(c1cccc(Br)c1)=NO2 | 15.8
Cc1c(NC(=S)N/N=C/c2ccc([N+](=O)[O-])cc2O)c(=O)n(-c2ccccc2)n1C | 1.14
CC12CCC(C(=O)Nc3nc4ccccc4s3)(OC1=O)C2(C)C (stereo not shown) | 16.8
COc1cccc(/C=N/NC(=O)CC(=O)NCCc2ccccc2)c1OC | 12.4
Cc1nn(S(=O)(=O)c2ccccc2)c(C)c1S(=O)(=O)N1CCC(C)CC1 | 12.6
CC1CCN(c2oc(-c3ccccc3Cl)nc2C#N)CC1 | 7.39
O=S(=O)(Nc1nnc(-c2ccccc2)s1)c1ccc(Cl)cc1 | -0.242

Structure (SMILES) | hERG current change (%, negative = inhibition) at 1uM [%]
CCc1cccc(NC(=O)C2CCN(S(=O)(=O)c3ccc4c(c3)NC(=O)CO4)CC2)c1 | 4.07
CCc1cc(S(=O)(=O)N2CCN(C(=O)c3ccco3)CC2)ccc1OC | 7.07
c1csc(-c2ccnc3ncnn23)c1 | 11.2
Cc1csc(NC(=O)CSc2nnc(Cn3c(=O)sc4ccccc43)n2-c2ccccc2)n1 | -3.56
Cc1ccc2cc(C#N)c(N3CCCN(S(=O)(=O)c4ccccc4)CC3)nc2c1 | 6.64
COc1ccc(Nc2cc(C(=O)NCCCN3CCOCC3)c3ccccc3n2)cc1 | 13.9
COc1cccc(C(=O)c2c(C)c(CCC#N)n3ccccc23)c1 | 1.83
CCN1C(=O)c2cccc3c(S(=O)(=O)N(C(=O)c4ccncc4)c4ccc(OC)cc4)ccc1c23 | 7.02
O=C(NCc1ccc(OC(F)(F)F)cc1)c1cc(-c2ccccc2)nn1CC1CC(c2cccnc2)=NO1 (stereo not shown) | 9.37
COc1cc2c(cc1OC)C(C)N(C(=O)[C@@H](NC(=O)c1ccccc1)C(C)C)CC2 (stereo partly shown) | 5.54
C=CCNC(=O)c1scc2c1CCCC2 | 14.3
CC(=O)Nc1ccc(S(=O)(=O)Oc2ccc(C(=S)N3CCC(O)CC3)cc2)cc1 | -2.29
Cc1cc(C)c(C)c(S(=O)(=O)N2CCC(C(=O)N3CC(C)CC(C)C3)CC2)c1C (stereo not shown) | 3.62
CC(=O)c1ccc(NC(=S)NN2C(C)CCCC2C)cc1 (stereo not shown) | 1.9
CC(C)(C)c1cc(CCC(=O)NN)cc(C(C)(C)C)c1O | -0.142
CC1Cc2ccccc2N1C(=O)CSc1nc2cc3c(cc2cc1C#N)OCO3 (stereo not shown) | 10.1
O=c1[nH]c(C2CCN(S(=O)(=O)c3ccc(C(F)(F)F)cc3)CC2)nc2c1nnn2Cc1ccc(F)cc1 | 3.1
COc1cccc(CNC2CN3CCC2CC3)c1OC.Cl (stereo not shown) | 14.5
CN(C(=O)COC(=O)c1ccccc1SCC(=O)N1CCCC1)C1(C#N)CCCCC1 | 9.14
O=C(CO/N=C/c1ccccc1)N1c2ccccc2Oc2ccccc21 | 4.8
CCOC(=O)c1sc(NC(=O)Nc2ccc(Cl)cc2)nc1C | 11.5
